In the RNAGym collection of RNA variant scans (doi:10.1073/pnas.2313332121):
Variants at the background level are over-represented here.

B1: TPR 5TU (parent)
chain: GGAUCUUCUCGAUCUAACAAAAAAGACAAAUCUGCCACAAAGCUUGAGAGCAUCUUCGGAUGCAGAGGCGGCAGCCUUCGGUGGCGCGAUAGCGCCAACGUUCUCAACUAUGACACGCAAAACGCGUGCUCCGUUGAAUGGAGUUUAUCAUG

Variants of: B1
Experiment: polymerase ribozyme fitness, log enrichment relative to wild type (log ratio); higher = more active; in vitro selection for triplet polymerase activity
Procedure, shortened: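 Libraries of mutants in each subunit of a heterodimeric triplet polymerase ribozyme were generated by PCR and transcribed. In triplicate, each went through one in vitro selection round: annealing with biotinylated primer, partner subunit and triplets; frozen incubation at −7 °C; gel excision of extended constructs; streptavidin-bead capture; RT-PCR. Fitness, taken from Illumina sequencing of input and output libraries, is the logarithm of a genotype's enrichment over wild-type enrichment, averaged across replicates with inverse-variance weights. The logarithm is base 2, and genotypes needed ≥10 input reads and ≥1 read per output to be kept.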

Row | Variant | polymerase ribozyme fitness (log ratio)
1 | C57G G68U G94U C116G | ≤ -4.2
2 | C57G G70A G86A | ≤ -4.2
3 | C57G G70C C75U U78G C114U C132G G141C | ≤ -4.2
4 | C57G G71A C96A U146A | -4.05
5 | C57G G83C C85U A119G | -1.44
6 | C57G G83U | -0.732
7 | C57G G84U G136C | ≤ -4.2
8 | C57G G86A C95U C99U G141U | -3.92
9 | C57G G94A G141C | -0.316
10 | C57G G141A | 0.453
11 | C57G U61A A66U G94C C96G A138C | ≤ -4.2
12 | C57G U61A C114U G136U U139C G143A | ≤ -4.2
13 | C57G U61G C69U | ≤ -4.2
14 | C57G U78A | ≤ -4.2
15 | C57G U139C | ≤ -4.2
16 | C57U | -0.0371
17 | C57U A60C C79U G92U | ≤ -4.2
18 | C57U A64C A66G G67U G71A G92C A113G G140U | ≤ -4.2
19 | C57U A66U C79U C87A A89U | ≤ -4.2
20 | C57U A89C G92C G126U A138U U139C U148G G152U | ≤ -4.2
21 | C57U A89G U127G C131A | ≤ -4.2

Row | Variant | polymerase ribozyme fitness (log ratio)
22 | C57U A91C | ≤ -4.2
23 | C57U A97G G128C G141C | -3.99
24 | C57U A110G | -2.85
25 | C57U A142C | -0.377
26 | C57U C63U A66G A91U A106C G143U | ≤ -4.2
27 | C57U C63U G65U G88A A138U | ≤ -4.2
28 | C57U C75G C76G C85G U104A | ≤ -4.2
29 | C57U C75G C87A A98U A120C | ≤ -4.2
30 | C57U C85A G100U A115G U135A G141C | ≤ -4.2
31 | C57U C85A G100U A138G | ≤ -4.2
32 | C57U C87G G141A | ≤ -4.2
33 | C57U C87U C93A G152A | ≤ -4.2
34 | C57U C93A | -1.61
35 | C57U C93G | -3.36
36 | C57U C95G G126U G141C | ≤ -4.2
37 | C57U C95U A115C C125U U134A U139G | ≤ -4.2
38 | C57U C95U C103G | -1.87
39 | C57U C96G U130A | -3.15
40 | C57U C105A | -0.73
41 | C57U C114G | -2.73
42 | C57U C116G | 0.474

Row | Variant | polymerase ribozyme fitness (log ratio)
43 | C57U G58C C76G G92A A97U | ≤ -4.2
44 | C57U G58C C87G G143A | ≤ -4.2
45 | C57U G59A C85U C95G | -2.02
46 | C57U G59A G86A U134A U148A | ≤ -4.2
47 | C57U G59C A66C A91G U134A | ≤ -4.2
48 | C57U G59C G68C C85G C93G U101G | ≤ -4.2
49 | C57U G62A C79U C87G G88C G94A C96U G100A | ≤ -4.2
50 | C57U G62C A64C A66G C95A A142U | ≤ -4.2
51 | C57U G65U C93A A110C | ≤ -4.2
52 | C57U G67A A137U U148G | ≤ -4.2
53 | C57U G70A A91C A107C U135G | ≤ -4.2
54 | C57U G74C A106C | ≤ -4.2
55 | C57U G81A U82G C85G | ≤ -4.2
56 | C57U G83U A137U G141C | ≤ -4.2
57 | C57U G83U C103U G126A C129G | ≤ -4.2
58 | C57U G84A A98U C129U A147U | -1.13
59 | C57U G84C C95A C116G G136U A138C | -4.17
60 | C57U G86A | -1.16
61 | C57U G88U G100A A107C | ≤ -4.2
62 | C57U G94C C116U | 0.445
63 | C57U G128U | -3.2

Row | Variant | polymerase ribozyme fitness (log ratio)
64 | C57U G140C | -3.55
65 | C57U U61A A89U A106G A122G A150G | -3.73
66 | C57U U61G G86A A89U | -3.74
67 | C57U U77A A107G | ≤ -4.2
68 | G58A A60G C69U G100C | ≤ -4.2
69 | G58A A66G C93U C99U | ≤ -4.2
70 | G58A A66G G81A A115C C149G | ≤ -4.2
71 | G58A A73C | -1.62
72 | G58A A73U U101G U102A U109A | ≤ -4.2
73 | G58A A89U C93U G94U C114U | ≤ -4.2
74 | G58A A97C C103A A110G G112C | ≤ -4.2
75 | G58A A110C C118G | ≤ -4.2
76 | G58A A142U | -0.199
77 | G58A C85G C93U C103G C129U G141U | ≤ -4.2
78 | G58A C85G C118A G126C | -3.62
79 | G58A C87A A98G A121C | ≤ -4.2
80 | G58A C87U C93A U130G | ≤ -4.2
81 | G58A C87U G100C A122C G126A G141U | ≤ -4.2
82 | G58A G59C C95U C99U A107U C132U U145A | ≤ -4.2
83 | G58A G59C G65A C95G C96A A120C | ≤ -4.2
84 | G58A G59C G84U C85U G86U A121C U139G | ≤ -4.2
